This is an account of results in the supplement of paper PMC11876631.

Where a chain is given by its changes, count along the chain named. Numbers in names are those of the source. ± gives the standard deviation of the averaged measurements. Laboratory Escherichia coli strains with one amino-acid change in an essential protein, pooled on minimal glucose agar with carbenicillin or gentamicin at twice the control MIC (plus kanamycin and chloramphenicol for the plasmids), 48 h. Fold change of barcode share against drug-free plates; higher = less susceptible. Active = above 20 in both replicates (the paper's putatively resistant). '<' = one read or none on drug, '>' = one read or none on a drug-free plate. Shares are relative, so most strains fall below 1 when a few take over. Listed are strains with at least 15 reads on both drug-free plates, and hits; most hits rest on fewer reference reads. Replicate rank correlation about 0.5. Edits are read from barcodes. Where only a bound is given, the exact number is not on record here.

The series concerns the target Escherichia coli (laboratory strain). Nature of the series: barcode share on antibiotic plates over drug-free plates; higher = less susceptible. On the procedure: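 A pool of E. coli strains, each edited to carry one amino-acid change in an essential protein, was grown for 48 h on minimal glucose agar with or without antibiotic; strain barcodes were sequenced; mean of two replicates.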

Setting [1] is: antibiotic: carbenicillin, 2× MIC (3.1 µg/mL).
The mark [2] stands for this setting: antibiotic: gentamicin, 2× MIC (MIC 0.45 µg/mL).

B1: psd L71W (protein)
chain: MLNSFKLSLQYILPKLWLTRLAGWGASKRAGWLTKLVIDLFVKYYKVDMKEAQKPDTASYRTFNEFFVRPWRDEVRPIDTDPNVLVMPADGVISQLGKIEEDKILQAKGHNYSLEALLAGNYLMADLFRNGTFVTTYLSPRDYHRVHMPCNGILREMIYVPGDLFSVNHLTAQNVPNLFARNERVICLFDTEFGPMAQILVGATIVGSIETVWAGTITPPREGIIKRWTWPAGENDGSVALLKGQEMGRFKLGSTVINLFAPGKVNLVEQLESLSVTKIGQPLAVSTETFVTPDAEPAPLPAEEIEAEHDASPLVDDKKDQV
Turning to B1, the “fold change of barcode share” value was 0.321 ± 0.046 under setting [1] and under 0.00412 under setting [2].

B2: psd V86W (protein)
chain: B1 chain with W71L, V86W
As for B2, the “fold change of barcode share” value runs as follows: under setting [1], 0.264 ± 0.087; under setting [2], 0.00554 ± 0.0024.

B3: psd L85Q (protein)
chain: B1 chain with W71L, L85Q
For B3, the “fold change of barcode share” value is, setting by setting: under setting [1], 0.364 ± 0.025; under setting [2], 0.0096 ± 0.0083.

B4: psd L96A (protein)
chain: B1 chain with W71L, L96A
As for B4, the “fold change of barcode share” value is, setting by setting: under setting [1], 0.266 ± 0.018; under setting [2], under 0.00557.

B5: psd L85W (protein)
chain: B1 chain with W71L, L85W
In the case of B5, the “fold change of barcode share” value by setting is: under setting [1], 0.252 ± 0.089; under setting [2], 0.00598 ± 0.0035.

B6: psd V86Q (protein)
chain: B1 chain with W71L, V86Q
Regarding B6, the “fold change of barcode share” value is 0.354 ± 0.12 under setting [1] and under 0.00301 under setting [2].

B7: psd L71P (protein)
chain: B1 chain with W71P
For B7, the “fold change of barcode share” value was 0.297 ± 0.041 under setting [1] and under 0.00391 under setting [2].

B8: psd L71D (protein)
chain: B1 chain with W71D
For the protein B8, the “fold change of barcode share” value runs as follows: under setting [1], 0.326 ± 0.052; under setting [2], 0.0049 ± 0.00072.

B9: psd L85A (protein)
chain: B1 chain with W71L, L85A
Turning to B9, the “fold change of barcode share” value under setting [1] turned out to be 0.387 ± 0.07 and the “fold change of barcode share” value under setting [2] was found to be 0.0028 ± 0.0011.

B10: psd L85P (protein)
chain: B1 chain with W71L, L85P
Take B10: the “fold change of barcode share” value is 0.371 ± 0.08 under setting [1] and under 0.00337 under setting [2].

B11: psd V86P (protein)
chain: B1 chain with W71L, V86P
For B11, the “fold change of barcode share” value by setting is: under setting [1], 0.351 ± 0.11; under setting [2], under 0.0105.

B12: psd V86A (protein)
chain: B1 chain with W71L, V86A
As for B12, the “fold change of barcode share” value by setting is: under setting [1], 0.222 ± 0.1; under setting [2], under 0.00838.

B13: psd L71Q (protein)
chain: B1 chain with W71Q
B13: the “fold change of barcode share” value runs as follows: under setting [1], 0.278 ± 0.12; under setting [2], 0.00721 ± 0.00097.

B14: psd V86D (protein)
chain: B1 chain with W71L, V86D
In the case of B14, the “fold change of barcode share” value by setting is: under setting [1], 0.202 ± 0.081; under setting [2], under 0.00447.
